Experimental findings from PubChem BioAssay AID1240 (Sanford-Burnham Center for Chemical Genomics, 2008) are described below.

SMILES strings stand for the structures. Out of some 50,000 compounds screened, about 800 (1.6%) showed an effect of 50% or more. The list shows a part of the results.

This experiment has as its target Bcl-2-like protein 10 (Homo sapiens) (UniProt Q9HD36). Put plainly: TR3 peptide-Bcl-B binding displacers, biochemical primary FP assay, phenotype converters (AID 1240).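 Note: 0% = Bcl-B with tracer peptide and DMSO and 100% = tracer peptide lacking Bcl-B.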 The following applies: GST-Bcl-B / FITC-TR3 peptide fluorescence polarization; stronger effect = higher value; compound at 3.75 mg/L.
UniProt Q9HD36, sequence (Q9HD36 whole entry, looked up): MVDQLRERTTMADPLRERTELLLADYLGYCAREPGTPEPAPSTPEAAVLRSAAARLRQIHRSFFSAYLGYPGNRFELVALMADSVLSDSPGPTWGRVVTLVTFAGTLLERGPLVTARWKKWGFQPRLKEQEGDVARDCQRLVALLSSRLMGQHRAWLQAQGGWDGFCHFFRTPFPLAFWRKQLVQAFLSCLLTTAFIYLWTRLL
In the case of `Clc1cccc(Cl)c1OCCCN1CCCCC1`, the displacement came to 7.6%.

As for `COC(=O)c1c(-c2ccc(Cl)cc2)csc1NC(=O)CCCC(=O)O`, the displacement came out at 2.8%.

In the case of `COc1ccccc1C(=O)N1CCN(Cc2ccccc2C)CC1`, the displacement is -3.5%.

Turning to `O=C1C2C3C=CC(C4CC34)C2C(=O)N1c1cccnc1` (configuration not stated), the displacement came to 1.3%.

For the compound `COCCN1C(=O)C(=O)/C(=C(/O)c2ccccc2)C1c1ccc([N+](=O)[O-])cc1` (configuration not stated), the displacement is -18.1%.

As for `Cc1ccc(Cl)c(OCCCCNC(C)(C)C)c1`, the displacement is -19.3%.

As to `COc1ccc2c(C)c(C(=O)O)oc2c1OC`, the displacement was 18.9%.

On to `CN1C(=O)C2(OCCO2)c2cc([N+](=O)[O-])ccc21`, for which the displacement is -5.7%.

For `CC(=O)Nc1ccccc1NC(=O)c1ccc(Cl)cc1`, the displacement was determined as 11.4%.

For `COc1cc([N+](=O)[O-])ccc1NC(=O)c1ccc(I)cc1`, the displacement was -11.9%.

With `O=C(O)C(Cc1c[nH]c2ccccc12)NS(=O)(=O)c1ccc([N+](=O)[O-])cc1` (configuration not stated), the displacement worked out at 5.5%.

In the case of `Nn1cnc2scc(-c3ccccc3)c2c1=O`, the displacement was found to be 1.9%.

With `Cc1onc(-c2c(F)cccc2Cl)c1C(=O)NCc1ccco1`, the displacement was -8%.

Turning to `CCCCOC(=O)COc1ccc2c3c(c(=O)oc2c1C)CCC3`, the displacement was 9.1%.

In the case of `COc1cc(CN2CCN(Cc3cccc([N+](=O)[O-])c3)CC2)c([N+](=O)[O-])cc1OC`, the displacement was -0.3%.

In the case of `COc1cc(OC)c(/C=N/n2c(C)nnc2C)c(OC)c1`, the displacement was found to be 2.8%.

For the compound `CCCC1=NN2C(=N)/C(=C/c3ccc(-c4ccccc4C(=O)OC)o3)C(=O)N=C2S1`, the displacement is -37%.

`COC(C)(C)CNS(=O)(=O)c1ccc(Cl)cc1`: the displacement came to 2.2%.

In the case of `CCOc1cc(C=O)ccc1OCc1ccc(Cl)c(Cl)c1`, the displacement is -5.6%.

On to `O=C(O)C1(P(=O)(c2ccc(Cl)cc2)c2ccc(Cl)cc2)CCCC1`, for which the displacement is -10.4%.

`CCOc1cc(/C=C2\SC(=S)N(CC(C)C)C2=O)ccc1O`: the displacement is 15.9%.

In the case of `CN1C(=O)/C(=N/OC(=O)c2ccc(Cl)cc2)c2ccccc21`, the displacement is 0.7%.

For the compound `O=C(N/N=C\c1cc(Cl)cc([N+](=O)[O-])c1O)c1ccc(Br)cc1`, the displacement amounted to 11.8%.

With `C/C(=N\NC(=O)c1n[nH]c2c1CCCC2)c1ccc([N+](=O)[O-])cc1`, the displacement was -6.9%.

On to `Cc1ccc(N2C(=O)C=CC2=O)c(Br)c1`, for which the displacement is 8.5%.

For the compound `CC(C)CCNC(=O)c1ccc(Cl)c([N+](=O)[O-])c1`, the displacement worked out at 12.8%.

Consider `OCc1nc2ccccc2n1/N=C/c1ccccc1`, for which the displacement was determined as 1.5%.

Regarding `O=C(Nc1ccc(-c2nnc(-c3ccccc3)o2)cc1)c1cccs1`, the displacement was found to be 15.3%.

Turning to `CC1=C(C(=O)Nc2ccc(Br)cc2)C(c2ccc(C)cc2)NC(=S)N1` (configuration not stated), the displacement came to 6.5%.

Regarding `COC(=O)C1=C(C)NC(=O)NC1c1ccc(SC)cc1` (configuration not stated), the displacement is -14.9%.

`CC(C)(CO)NCC(=O)NCCNc1ccc([N+](=O)[O-])cc1Cl`: the displacement stood at 9.2%.

In the case of `COc1ccc(CNc2nccs2)cc1`, the displacement amounted to 7.8%.

With `O=C(COc1ccccc1)Nc1ccncc1`, the displacement stood at 14%.

With `Cc1ccc(N2C(=O)C3C4C=CC(CC4)C3C2=O)c([N+](=O)[O-])c1` (configuration not stated), the displacement turned out to be 4.7%.

For the compound `CCN1C(=O)c2cccc3c(NC(=O)c4ccc(Oc5ccccc5)cc4)ccc1c23`, the displacement was -14.2%.

With `N/C(=N/OC(=O)c1ccc(Br)cc1)c1nonc1N`, the displacement stood at 8.4%.

For `CCN(C=NC1=NN(c2ccccc2)CC1)CC`, the displacement worked out at 10%.

With `COc1ccc(C(=O)Nc2ccccc2C)cc1OC`, the displacement was 1.8%.

On to `O=C(Cc1nnc(NC(=O)Nc2cccc(Cl)c2)s1)Nc1ccccc1`, for which the displacement amounted to 1.3%.

`COc1cc(/C=N/NC(=O)Cc2n[nH]c(=O)[nH]c2=O)cc(Br)c1O`: the displacement was determined as 6.6%.

For `COc1ccc(Br)cc1C(=O)Nc1cccc(NC(=O)c2ccccc2C)c1`, the displacement was -3.3%.

On to `Cc1ccc(-c2nc3cc(Cl)cc(Cl)c3o2)cc1NC(=O)COc1ccc([N+](=O)[O-])cc1`, for which the displacement came out at 2.6%.

Regarding `Oc1c(Cl)cc(Cl)cc1/C=N/Nc1nnc(-c2ccccc2)c(-c2ccccc2)n1`, the displacement came to 0.5%.

Turning to `Cc1ccc(-n2nc3ccc(NC(=O)c4cccs4)cc3n2)cc1Cl`, the displacement is 12.3%.

In the case of `COc1ccc(OC)c(S(=O)(=O)N2CCN(c3ccccc3)CC2)c1`, the displacement is -7.4%.

With `CCN(CC)Cc1c(O)ccc2c(=O)c(Oc3ccccc3Br)c(C(F)(F)F)oc12`, the displacement is 1.9%.

As for `Cc1cccc(NC(=O)C(=O)NCCCn2ccnc2)c1`, the displacement worked out at 3.3%.

Take `Cc1ccc(COc2c(Br)cc(/C=C(\C#N)c3nn(-c4ccccc4)c(N)c3C#N)cc2Br)cc1`: the displacement turned out to be 11.2%.

As to `O=C(N/C(=C/c1cccs1)C(=O)N1CCCCCC1)c1ccccc1`, the displacement is 16.2%.

Consider `O=C(Nc1ccc(-c2nc3ccccc3s2)cc1)c1ccc(Cl)c([N+](=O)[O-])c1`, for which the displacement turned out to be 14.9%.

`CC1(C)CCCC2=C1CC(C(=O)O)C(C(=O)O)C2` (configuration not stated): the displacement amounted to 12.2%.

For the compound `CCN(CC)c1ccc(NC(=O)C(c2ccccc2)c2ccccc2)cc1`, the displacement was determined as 8.2%.

As for `CCC(C(=O)Nc1cc(OC)c(Cl)cc1OC)c1ccccc1` (configuration not stated), the displacement is 2.4%.

Regarding `CCN(CC)c1ccc(C2NC(=O)NC(C)=C2C(=O)OCCOc2ccccc2)cc1` (configuration not stated), the displacement is -0.8%.

`Cc1n(N)c2ccccc2[n+]1C`: the displacement is -1.6%.

As to `O=S(=O)(c1ccccc1)N1CCN(Cc2ccc3c(c2)OCO3)CC1`, the displacement is -8.5%.

In the case of `COc1ccccc1NC(=O)N1CCCc2ccccc21`, the displacement stood at 4.5%.

As for `CCCOc1ccc(C(=O)Nc2c(C)cc(Br)cc2C)cc1`, the displacement is 12.4%.

Take `COc1ccc(C(CC(=O)c2ccccc2)S(=O)(=O)c2ccc(C)cc2)cc1` (configuration not stated): the displacement came out at 13.7%.

Regarding `CCOc1cc2oc(=O)cc(C)c2cc1CC`, the displacement was 5.9%.

On to `CCOC(=O)NCc1ccc(Cl)cc1`, for which the displacement was 1.2%.

On to `CCc1ccc(OCC(=O)Nc2cccc(S(N)(=O)=O)c2)cc1`, for which the displacement is -2.2%.

Turning to `O=C1CCCC(O)=C1C(C1=C(O)CCCC1=O)c1ccc(Cl)cc1`, the displacement was -12%.

Take `COc1cccc(C(=O)Nc2ccc3oc(-c4cccc(OC)c4)nc3c2)c1`: the displacement is -9.2%.

Regarding `O=C(/C=C/c1ccco1)Nc1ccc(S(=O)(=O)Nc2nccs2)cc1`, the displacement was found to be 0.3%.

As for `O=c1cc(N2CCOCC2)c2ccccc2o1`, the displacement amounted to 4.8%.

Take `Cc1c(C=C(C#N)C#N)c(C)c([N+](=O)[O-])c(C)c1[N+](=O)[O-]`: the displacement turned out to be 10.5%.

In the case of `Cc1c(-n2c(O)c(C3=c4cc([N+](=O)[O-])ccc4=NC3=O)sc2=S)c(=O)n(-c2ccccc2)n1C`, the displacement was -4%.

For the compound `Cc1ccc(OCC(=O)NC2C3CC4CC(C3)CC2C4)c(Br)c1` (configuration not stated), the displacement amounted to 3.7%.

Take `N#Cc1ccc2c(c1)nc1c3cccc4cccc(c(=O)n21)c43`: the displacement is 22.2%.

`O=C(CC1Nc2ccccc2NC1=O)Nc1ccc(Br)cc1` (configuration not stated): the displacement is -5.1%.

Turning to `NNc1cc(-c2ccccc2O)nc(-c2ccccc2)n1`, the displacement was -14.9%.

Take `O=C(Nc1cccc(-c2nc3ccccc3[nH]2)c1)c1cccs1`: the displacement was -5.1%.

Take `N/C(=N\OC(=O)c1ccccc1F)c1ccc(Br)cc1`: the displacement came out at 14.3%.

Consider `O=c1/c(=C/c2cccc(OCCOc3ccc(Br)cc3)c2)sc2nc3ccccc3n12`, for which the displacement was found to be 6.6%.

For `CCOC(=O)c1oc2c(c1C)C(Cl)=C(C=O)CC2`, the displacement amounted to 15.1%.

As for `COc1ccccc1CN1CCN(S(=O)(=O)c2ccc(Cl)cc2)CC1`, the displacement is -9.1%.

Turning to `O=C(/C=C/c1cccc(C(F)(F)F)c1)Nc1cccc([N+](=O)[O-])c1`, the displacement came out at 20.4%.

As for `COc1ccc(C(=O)N/C(=C\c2ccc(-c3cccc([N+](=O)[O-])c3)o2)C(=O)NCCN2CCOCC2)cc1`, the displacement was 9.8%.

As to `CSCCC(NC(=O)c1ccc(C)o1)C(=O)O` (configuration not stated), the displacement was 10.7%.

`CCC/C(O)=C1\C(=O)CC(C)(C)CC1=NCCO`: the displacement was found to be 1.4%.

`NC1=NC(=O)/C(=C/c2cccc(OS(=O)(=O)c3ccc([N+](=O)[O-])cc3)c2)S1`: the displacement was found to be 1.1%.

For `O=C(CN1C(=O)c2ccccc2C1=O)Nc1ccccc1C(=O)N1CCOCC1`, the displacement is -6.2%.

As for `O=[N+]([O-])c1ccc(N2CCOCC2)cc1Sc1cccc2cccnc12`, the displacement stood at 8.4%.

Turning to `O=C(/C=C/c1ccc(-c2cc(Cl)ccc2Cl)o1)c1ccc(F)cc1`, the displacement was -25.9%.

With `Cc1cc(C)nc(SC(C)C(=O)N/N=C/c2ccccc2Cl)n1` (configuration not stated), the displacement came out at 3.2%.

For `Cc1ccc(Cl)c(OCCCCN2CCC(C)CC2)c1`, the displacement was -4.6%.

On to `CCOC(=O)c1cnc2cc(-c3cccc(Cl)c3)[nH]n2c1=O`, for which the displacement was -7.6%.

Consider `Cc1ccc(N(CC(=O)Nc2c(C)n(C)n(-c3ccccc3)c2=O)S(C)(=O)=O)cc1`, for which the displacement is -2.2%.

As to `Fc1ccccc1OCCCn1ccnc1`, the displacement worked out at 15.9%.

With `CC(NC(=O)C(=O)NCCN1CCN(C(=O)c2ccco2)CC1)c1ccccc1` (configuration not stated), the displacement was -8.5%.

Turning to `Cc1ccc(-c2n[nH]c(=S)c3ccccc23)cc1C`, the displacement turned out to be 7.3%.

Take `COc1ccc(NC(=O)C2CC(O)CN2C(=O)OCc2ccccc2)cc1` (configuration not stated): the displacement came out at 2.2%.

Take `COc1ccc(S(=O)(=O)N(CC(=O)NCCc2ccc(OC)c(OC)c2)Cc2ccccc2)cc1`: the displacement was 0.4%.

Turning to `COc1ccc(NCc2cccnc2)cc1`, the displacement amounted to 16.6%.

For `Cc1ccc(/C=C2\SC(=S)N(CCC(=O)Nc3nccs3)C2=O)cc1`, the displacement amounted to 19.4%.

For `O=C(Nc1nc(-c2ccc(Cl)cc2)cs1)C1CC1`, the displacement was 4.4%.

For the compound `CC1CCN(c2ccc([N+](=O)[O-])c(SCCO)c2)CC1`, the displacement came out at 13.2%.

Turning to `COc1ccc(/C=N/n2cnnc2)cc1Cn1nc(C)c([N+](=O)[O-])c1C`, the displacement turned out to be 12.3%.

`Cc1ccc(N2C(=O)NC(=O)/C(=C\c3ccc(I)o3)C2=O)cc1C`: the displacement was -8.1%.

For `CCOc1ccc(C(=O)Nc2ccc(I)cc2Cl)cc1`, the displacement turned out to be 2.8%.

As for `COc1ccc(-n2c(=O)c3c4c(sc3n3c(SCC(N)=O)nnc23)COC(C)(C)C4)cc1`, the displacement stood at 1.9%.

As for `CC(=O)N(C)c1ccc(NC(=O)c2cccs2)cc1`, the displacement is -7%.

As for `CCc1ccc(NC(=O)COc2cc(C)c(Cl)c(C)c2)cc1`, the displacement came out at 30.2%.

As for `CCOC(=O)C1=C(C)N=c2s/c(=C\c3ccc(F)cc3)c(=O)n2C1c1cccc(OC)c1` (configuration not stated), the displacement amounted to 16.8%.

On to `Clc1cccc(C2Nc3cccc4cccc(c34)N2)c1`, for which the displacement turned out to be 19.7%.

Regarding `Cc1nc2cc(-c3cccc(F)c3)nn2c(C)c1Cl`, the displacement turned out to be 8.5%.

In the case of `Cc1ccc2nc(-c3ccc(NC(=O)COc4ccc([N+](=O)[O-])cc4)cc3)oc2c1`, the displacement is -2.6%.

As for `COc1ccccc1/C=C/C(=O)c1ccc(-c2ccccc2)cc1`, the displacement came out at 8.7%.

Regarding `COc1ccc(S(=O)(=O)Nc2ncccc2O)cc1`, the displacement was found to be 4.4%.

On to `CCOc1ccc(NC(=S)NC(NC(=O)c2cccc(OC)c2)C(Cl)(Cl)Cl)cc1` (configuration not stated), for which the displacement was -5.8%.

Regarding `Cc1ccc(C(=O)Nc2ccc(I)cc2C(=O)O)o1`, the displacement worked out at 6.1%.
